Some of the results follow.

The experiment has as its system T1, C. trachomatis L2/434/Bu expressing GFP (CTL2-GFP).
T1 construct: L2/434/Bu GFP intracellular growth in HeLa cells
Set-up: species or system HeLa; C. trachomatis total inclusion area by high-content imaging, normalised to DMSO. The settings on record: total inclusion area; 28.5 h, 10 µM; inhibitor. In short, it runs like this:
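After bulk GFP and resorufin fluorescence reads, cells were fixed, stained with Hoechst and imaged by high-content microscopy. Inclusion area and number (GFP) stood in for chlamydial growth, nuclei count (Hoechst) for host cell viability. MICs were derived as for the bulk readout.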
For the molecule `O=C(/C=C/C=C/c1ccccc1)CC1(O)C(=O)N(Cc2cccc3ccccc23)c2ccccc21` (stereo not drawn) [CBK264744], the “% of control remaining” value was determined as 94.0894.

As to `CCC1CCCCN1C(=O)c1cc2ccccc2o1` (stereo not drawn) [CBK078549], the “% of control remaining” value is given as 89.1107.

Turning to `O=C(CSc1nc(N2CCOCC2)nc(N2CCOCC2)n1)c1ccc([N+](=O)[O-])cc1` [CBK269107], the “% of control remaining” value worked out at 95.7092.

`CC1=C(C)C(=NNC(N)=S)C(C)=C(C)C1=NNC(N)=S` [CBK261262]: the “% of control remaining” value is 18.4503.

For the molecule `O=C(Nc1ccc2nsnc2c1NC(=O)c1ccc2nsnc2c1)c1ccc2nsnc2c1` [CBK264309], the “% of control remaining” value came to 102.069.

Turning to `COc1ccccc1CC(=O)N1CCCC1c1nc2ccccc2[nH]1` (stereo not drawn) [CBK285517], the “% of control remaining” value was 100.218.

On to `CNC(=O)c1ccc(NC(=O)N2CCCCC2c2ccnn2C)cc1` (stereo not drawn) [CBK305521], for which the “% of control remaining” value is on record as 86.1441.

Take `CN(C)CCNc1c2c(nc3ccccc13)CCC2` [CBK263732C]: the “% of control remaining” value is 106.882.

For the molecule `Cn1cc(C2CCCCCN2C(=O)c2nn(C)cc2Cl)cn1` (stereo not drawn) [CBK284972], the “% of control remaining” value was determined as 119.838.

Take `Oc1cccc2ccc(-n3ccnc3)nc12` [CBK017812]: the “% of control remaining” value came to 124.634.

For the molecule `Cc1ccccc1C(NC(=O)C1CCN(C(=O)NCCc2ccccc2)CC1)c1ncccc1C` (stereo not drawn) [CBK060409], the “% of control remaining” value worked out at 103.85.

With `O=c1c(N2CCN(CCOc3ccccc3)CC2)nccn1CCOc1cc(F)c(F)cc1F` [CBK045934C], the “% of control remaining” value was 105.307.

As for `CCCNC(=O)NCCc1cccs1` [CBK043675], the “% of control remaining” value was 110.846.

Consider `S=c1n(CN2CCC3(CC2)OCCO3)nc(-c2ccccc2Cl)n1-c1ccccc1` [CBK265222], for which the “% of control remaining” value is recorded as 95.2194.

Take `COc1ccccc1N1CCN(C(=O)c2ccccc2C(=O)c2ccccc2)CC1` [CBK091506]: the “% of control remaining” value is reported as 88.0469.

`CC(=O)NC(=S)Nc1ccc(Oc2ccccc2)cc1` [CBK288454]: the “% of control remaining” value came to 39.41.

With `CCCC(=O)Nc1ccc(OCc2ncc(C(C)C)o2)c(C(C)=O)c1` [CBK305516], the “% of control remaining” value is recorded as 126.561.

With `COc1ccc(-n2cc(-c3ccccc3C(F)(F)F)nn2)cc1OC` [CBK112965], the “% of control remaining” value is listed as 90.6387.

For the molecule `COc1ccc2c(c1)C1(Nc3ccccc3C(=O)N1c1ccccc1)C(=O)N2` (stereo not drawn) [CBK103747], the “% of control remaining” value was 74.5711.

Regarding `Cc1ccccc1OCC(=O)NN1CCN(C)CC1` [CBK265783C], the “% of control remaining” value was 102.224.

As for `O=C(O)c1c(Cl)c(C(=O)O)c(C(=O)O)c(Cl)c1C(=O)O` [CBK261177], the “% of control remaining” value was found to be 104.809.

For `CCN(CC)C(=O)CN1CCC(Oc2cncc(OCc3ccc(Cl)c(Cl)c3)n2)C1` (stereo not drawn) [CBK084431], the “% of control remaining” value came out at 95.3815.

Take `CC(C)(C)C(=O)N1CCC(n2nc(-c3cccs3)ccc2=O)CC1` [CBK284182]: the “% of control remaining” value worked out at 82.723.

On to `COc1cccc(CN2CCN(C(=O)c3ccco3)[C@@H](C)C2)c1` [CBK284267], for which the “% of control remaining” value is 66.9725.

As for `CC(C)(C)c1cn2c3ccccc3nc2n1CCN1CCOCC1` [CBK278252C], the “% of control remaining” value is given as 92.1133.

In the case of `CCc1c(O)c2ccccc2n(Cc2ccccc2)c1=O` [CBK219367], the “% of control remaining” value was 94.6534.

As for `CCN(Cc1cccc(C(=O)O)c1)Cc1noc(C2CCC2)n1` [CBK307708], the “% of control remaining” value is reported as 28.8941.

In the case of `O=C(CSCc1c(Cl)cccc1Cl)Nc1cccc(-c2nnc(-c3ccccc3)o2)c1` [CBK267435], the “% of control remaining” value amounted to 89.2095.

As for `CCN(CC)C(=O)CN1C(=O)N2CCN=C2c2ccccc21` [CBK283944], the “% of control remaining” value is given as 97.7482.

`Cc1cccnc1Nc1ccc(C2CCCN(C(=O)Cc3c[nH]c4ccccc34)C2)nc1` (stereo not drawn) [CBK285968]: the “% of control remaining” value is reported as 112.388.

With `COc1ccc(C(=O)Nc2c(C)nn(-c3ccccc3)c2C)cc1S(=O)(=O)NC1CC1` [CBK297906], the “% of control remaining” value amounted to 125.771.

On to `CCc1nn(CC(=O)N2CCCC2)c(=O)c2cc3sc(C)cc3n12` [CBK284122], for which the “% of control remaining” value came to 78.0595.

`CN(C)CCN(C)C(=O)c1cc(-c2ccc(Cl)cc2)[nH]n1` [CBK115928]: the “% of control remaining” value was 93.221.

Regarding `Cc1cc(C)n(CCOc2nonc2N)n1` [CBK025818], the “% of control remaining” value is on record as 96.3335.

For the molecule `Cc1cc(NS(=O)(=O)c2cc(C(F)(F)F)cc(C(F)(F)F)c2)n(C)n1` [CBK067261], the “% of control remaining” value is reported as 90.0417.

Regarding `CCC1C(=O)NCCN1C(=O)Cc1cccc2cccnc12` (stereo not drawn) [CBK281728], the “% of control remaining” value stood at 102.964.

Regarding `COc1ccc(S(=O)(=O)NC[C@H]2C[C@@H]3CC[N@]2C[C@@H]3CN2CCCCC2)cc1` [CBK288764], the “% of control remaining” value is recorded as 107.276.

`COc1ccc(NC(=O)c2cc3nc(C)ccc3o2)cc1` [CBK287663]: the “% of control remaining” value was found to be 66.84.

As for `CN(C)CCCn1c(=O)[nH]c2sc3c(c2c1=N)CC(C)(C)OC3` [CBK269103], the “% of control remaining” value worked out at 84.9668.

With `c1cncc(Nc2cccc(-c3ccco3)n2)c1` [CBK037742], the “% of control remaining” value is 135.126.

With `Cc1ccc(Nc2nc(N3CCOCC3)nc3nccnc23)cc1` [CBK287664], the “% of control remaining” value is given as 76.1316.

In the case of `COc1ccc(NC(=O)N[C@H]2C[C@H]3C(=O)N[C@H](Cc4ccccc4)C(=O)N3C2)cc1` [CBK289227], the “% of control remaining” value is 125.115.

On to `Cn1cc(-c2nccnc2OCc2ccccn2)cn1` [CBK107067], for which the “% of control remaining” value came out at 98.9068.

With `CC(=O)N1CCC(C(=O)NCCc2cccc(C)c2)C1` (stereo not drawn) [CBK281952], the “% of control remaining” value is 104.163.

In the case of `CC1(O)CCN(Cc2nnnn2-c2ccc(S(C)(=O)=O)cc2)CC1` [CBK304166], the “% of control remaining” value worked out at 29.1138.

Regarding `Cc1ccc(-c2nnc(CNC(=O)c3cccc(Cl)c3)o2)s1` [CBK284646], the “% of control remaining” value was 102.092.

In the case of `O=C(O)c1ccc(S(=O)(=O)c2ccc(O)cc2)cc1` [CBK261411], the “% of control remaining” value amounted to 77.1654.

Regarding `CCN(CC(=O)NCc1cccnc1)S(=O)(=O)c1ccc(F)cc1` [CBK269503], the “% of control remaining” value was determined as 91.9693.

Regarding `Cc1ccc(S(=O)(=O)N(CC(=O)NCc2ccco2)c2cccc(C)c2)cc1` [CBK264125], the “% of control remaining” value came out at 105.962.

With `Cc1cccc(C(=O)Oc2ccc(C(c3c(C)n[nH]c3O)c3c(C)n[nH]c3O)cc2)c1` [CBK264804], the “% of control remaining” value was 117.433.

Turning to `O=S(=O)(NC1c2cccc3cccc(c23)C1Sc1ncccn1)c1ccccc1` (stereo not drawn) [CBK264706], the “% of control remaining” value worked out at 98.4768.

As for `Cc1nn(C)cc1-c1cncn1Cc1ccc2c(c1)CCCO2` [CBK281797], the “% of control remaining” value was 115.162.

With `Cc1nn(-c2ccccc2)c2c1C(C(=O)c1ccc3c(c1)OCO3)CC(=O)N2` (stereo not drawn) [CBK294436], the “% of control remaining” value worked out at 98.7991.

Take `COc1ccc(C(NC(C)=O)c2nccc3cc(OC)c(OC)cc23)cc1OC` (stereo not drawn) [CBK270219]: the “% of control remaining” value turned out to be 91.2844.

`COc1cccc(Sc2cc(N3CCCC3)ncn2)c1` [CBK089533]: the “% of control remaining” value turned out to be 96.5934.

For the molecule `CCN1C(=O)C2(CC(=O)N(CCOC)C2=O)c2cc(Cl)ccc21` (stereo not drawn) [CBK075244], the “% of control remaining” value was found to be 85.2815.

Regarding `Cc1cc2c(o1)c1cnn(CC(=O)N3CCCCCC3)c(=O)c1n2C` [CBK284219], the “% of control remaining” value came out at 84.5677.

In the case of `Cc1ccccc1COc1cccc(Cl)c1Cl` [CBK002607], the “% of control remaining” value was found to be 35.998.

Turning to `COc1cccc(C(=O)NCCC(=O)N2CCc3ccccc3C2)c1` [CBK307575], the “% of control remaining” value is listed as 52.452.

For `Nc1ncc(-c2ccco2)nc1NC1CCOCC1` [CBK063806], the “% of control remaining” value is reported as 107.57.

Take `CC(CC(=O)O)CC(=O)N1CCN(c2ccccn2)CC1` (stereo not drawn) [CBK286839]: the “% of control remaining” value came out at 62.2184.

With `Cc1cc(CC(=O)N2CCN(c3ncccn3)CC2)on1` [CBK144507], the “% of control remaining” value worked out at 81.8396.

As to `Cc1nccn1CCNC(=O)c1c2c(nn1C)CCCC2` [CBK281857], the “% of control remaining” value amounted to 81.0767.

`CCC(=O)N1CCCC1c1nc(C)c2c(n1)N(Cc1ccc(F)cc1)CCC2` (stereo not drawn) [CBK286247]: the “% of control remaining” value stood at 108.373.

On to `N/C(=N\OCC(=O)Nc1ccc(-n2cnnn2)cc1)c1nonc1N` [CBK265331], for which the “% of control remaining” value is listed as 94.4248.

`CC(=O)NCC(=O)N1CCC2(CC1)CC(=O)c1cc(Br)ccc1O2` [CBK156447]: the “% of control remaining” value was 83.8731.

On to `O=C(c1cnc2ccccc2n1)N1CCC(F)CC1` [CBK200264], for which the “% of control remaining” value is reported as 127.647.

On to `CCN(CCO)c1ccc(Nc2nc(Br)cn3ccnc23)cc1` [CBK037475], for which the “% of control remaining” value was determined as 92.9854.

With `O=C(O)c1cnc(NCC2CCCCCC2)[nH]c1=O` [CBK023792], the “% of control remaining” value is reported as 32.8474.

For the molecule `COc1ccc(-c2cc(C(=O)Nc3nc4ccc(S(C)(=O)=O)cc4s3)c3ccccc3n2)cc1` [CBK033551], the “% of control remaining” value is recorded as 102.209.

Turning to `COc1ccc(-c2nc(NC(=O)C3CCC(OC)CC3)cnc2-c2ccc(F)cc2)cc1` (stereo not drawn) [CBK037004], the “% of control remaining” value is on record as 96.112.

Regarding `O=C(CSc1nc[nH]n1)Nc1ccc(-c2nc3ccccc3s2)cc1` [CBK267146], the “% of control remaining” value is 108.93.

`COCCn1c(CO)nnc1[C@H]1C[C@H](NC(=O)c2ccc(F)cc2F)C1` [CBK306665]: the “% of control remaining” value is reported as 12.3139.

On to `O=C(c1cccc(C(F)(F)F)c1)N1CCN(C(=O)c2ccc3c(c2)CCC3)CC1` [CBK298300], for which the “% of control remaining” value is on record as 150.436.

For the molecule `CCC(C(=O)Nc1nccs1)N(C)Cc1c(C)nn(C(C)C)c1C` (stereo not drawn) [CBK307402], the “% of control remaining” value is 58.5218.

In the case of `COCOc1ccc(-c2ncc(OC)nc2NC(=O)c2cc3ccccc3s2)cc1` [CBK145250], the “% of control remaining” value is listed as 107.441.

With `COc1cccc(Oc2nccnc2-c2ccsc2)c1` [CBK106762], the “% of control remaining” value was 76.9028.

With `COCc1cccc(-c2ncc(OC)nc2NC(=O)c2c(C)noc2C)c1` [CBK145237], the “% of control remaining” value is listed as 83.0406.

`O=S(=O)(Nc1nnn[nH]1)c1cccc2nsnc12` [CBK062379]: the “% of control remaining” value was 95.9733.

On to `Cc1cc(CN2CCCC2)cc(C)c1O` [CBK028736C], for which the “% of control remaining” value is 43.7858.

Turning to `CN(C)S(=O)(=O)c1ccc(C(=O)Nc2ccc(N3CCOCC3)c(Cl)c2)cc1` [CBK267383], the “% of control remaining” value is 89.1542.

(Values after paper PMC12040169 (PLOS Biology, 2025).)
